Out of some 360,000 compounds screened, about 11,000 (3.1%) were called active. The inconclusive results got no clear call from the source; some entries with a clear call stand among them for comparison. Calls follow the shape of the dose curve; as a rule, active = well fitted inhibition curve with a large enough effect; inconclusive = small, poorly fitted or top-dose-only effect; inactive = no such curve, though single readings can be large or run the other way. No potency is given beside an inconclusive call; the fits are too rough.
Each molecule was assayed against Schistosoma mansoni thioredoxin glutathione reductase (TGR) (UniProt Q962Y6) (assay: qHTS Assay for the Inhibitors of Schistosoma Mansoni Peroxiredoxins). Settings: purified TGR, DTNB reduction, TNB absorbance 405 nm; series mostly up to 114 µM.
How it was run: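 Kinetic colorimetric format: TGR-catalysed, NADPH-driven DTNB reduction monitored via TNB absorbance. Enzyme dispensed at 20 nM; compound exposure 15 min at room temperature before reaction start.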
Also: nearly all actives have a fitted effect of over 60% in size.
Potency is read from the fitted curve at half-maximal effect; tags tell the direction and shape of the fitted curve.

Row | Structure (SMILES) | Potency
1 | O=[N+]([O-])c1ccc(CNc2ccc(Cl)cc2)s1 | inconclusive [inhibitor, full curve]
2 | Cc1ccc(C(=O)NC(=S)NCC2CCCO2)cc1Br (stereo not drawn) | active: 56.2 µM
3 | COc1ccc(N2CCN(Cc3nc4c(c(=O)[nH]c(=O)n4C)n3Cc3ccc(Cl)cc3)CC2)cc1 | inactive
4 | O=C1CCCN1CCCNC(=S)Nc1cccc2ccccc12 | inconclusive [inhibitor, full curve]
5 | COCCCNC(=S)Nc1cccc(SC)c1 | inconclusive [inhibitor, partial curve]
6 | S=C(NCC1CCCO1)Nc1ccc(Cl)cc1 (stereo not drawn) | inconclusive [inhibitor, partial curve]
7 | CCOC(=O)N1CCN(C(=O)CCS(=O)(=O)c2ccc(Br)s2)CC1 | inconclusive [inhibitor, full curve]
8 | COc1cccc(-c2nc(-c3ccc4c(c3)-c3ccccc3S4(=O)=O)c(-c3ccccc3)[nH]2)c1OC | inconclusive [inhibitor, partial curve]
9 | O=C(N/N=C/c1ccc(OCCCF)cc1)c1cc(OCC(F)(F)F)ccc1OCC(F)(F)F | inconclusive [inhibitor, full curve, poor fit]
10 | CCN(CC)CCNC(=O)c1c(C)oc2ncnc(N3CCOCC3)c12 | inactive
11 | COC(=O)c1c(NC(=O)CN2CCC(C)CC2)c2c(C)cccc2n1C | inconclusive [inhibitor, single point]
12 | CCSc1ccc([C@@H]2[C@@H]3C(=O)N(CC)C(=O)[C@@H]3[C@]3(C(=O)OC)CCCN23)cc1 | active: 35.5 µM
13 | Cc1cc(NC(=O)CSc2nnc(-c3c[nH]c4ccccc34)n2-c2ccc(Cl)cc2)no1 | inactive
14 | Cn1c(=O)c2c(nc(CN3CCN(C(=O)c4ccco4)CC3)n2Cc2ccccc2F)n(C)c1=O | inconclusive [inhibitor, partial curve]
15 | O=S(=O)(c1ccc(NC(=S)NCc2ccco2)cc1)N1CCCC1 | inconclusive [inhibitor, partial curve]
16 | O=C1CC(c2ccco2)CC(O)=C1C=NCC1NCCc2ccccc21 (stereo not drawn) | inconclusive [inhibitor, partial curve]
17 | O=C(CSc1nc2ccccc2o1)Nc1nc(-c2ccccc2)cs1 | inactive
18 | Cc1ccccc1NC(=O)c1ccc(F)c(S(=O)(=O)NCC2CCCO2)c1 (stereo not drawn) | inconclusive [inhibitor, partial curve]
19 | Cc1ccccc1Nc1nc(N)nc(CCl)n1 | inconclusive [inhibitor, single point]
20 | O=C(NC(=S)Nc1ccc2c(c1)OCCO2)c1ccc(F)cc1Cl | inconclusive [inhibitor, partial curve]
21 | Cc1ccccc1N/N=C/c1c(C)nc2ccccn12 | inconclusive [inhibitor, full curve]
22 | CCOC(=O)CSc1n[nH]c(=S)s1 | inconclusive [inhibitor, full curve]
23 | O=C(NNC(=O)C1CCCO1)c1ccc(F)cc1 (stereo not drawn) | inactive
24 | O=C(CSc1nn(-c2ccc(F)cc2)c(=S)s1)N1CCN(C(=O)c2ccco2)CC1 | inactive
25 | Cc1cnc(NC(=O)CSc2nnc(C)n2N)s1 | inactive

Row | Structure (SMILES) | Potency
26 | C#CCOCCOCCOCCNc1nc(N2CCN(C(=O)[C@H](CCC(=O)O)n3cc(C(N)[C@H](C)CC)nn3)CC2)nc(N2CCN(C(=O)[C@H](Cc3ccc(O)cc3)n3cc(C(N)[C@H](C)CC)nn3)CC2)n1 (stereo partly drawn) | active: 50.1 µM
27 | Cc1ccccc1NC1=C(Cl)C(=O)N(C2CCCCC2)C1=O | inactive
28 | CCOc1ccc(NC(=O)c2c(NCc3cccnc3)sc3c2CCCC3)cc1 | inconclusive [inhibitor, partial curve]
29 | COc1cccc(N(CC(=O)NCC2CCCO2)C(=O)CCC(=O)Nc2nccs2)c1 (stereo not drawn) | inactive
30 | O=C(CCS(=O)(=O)c1cccc2nonc12)Nc1c(F)cccc1F | active: 11.2 µM
31 | Cc1ccccc1C(=O)N1CCC(C(=O)Nc2cc(C(F)(F)F)ccc2N2CCCC2)CC1 | inactive
32 | Nc1c(Br)cc(Br)c(N2CCCC2=O)c1Br | inconclusive [inhibitor, full curve]
33 | CCOC(=O)C1(Cc2ccc(OC)cc2)CCN(C(=O)c2cc(C)nn2C)CC1 | inactive
34 | CC(=O)c1ccc2c(c1)C1C=CCC1C(C(=O)O)N2 (stereo not drawn) | inconclusive [inhibitor, partial curve, poor fit]
35 | Cc1ccc(C(=O)c2cn[nH]c2-c2ccccc2O)cc1 | inconclusive [inhibitor, single point]
36 | CC(=O)c1cc(F)c(N2CCN(C(=O)C(C)(C)C)CC2)cc1C | inconclusive [inhibitor, partial curve]
37 | CC(=O)NCc1ccc(C(=O)CCl)s1 | active: 14.1 µM
38 | COCCC(=O)N1CCC(Oc2ccc(C(=O)N(C)C3CCCCC3)cc2)CC1 | inconclusive [inhibitor, partial curve, poor fit]
39 | Cc1nc2ccccc2c2ncccc12 | inactive
40 | CN(c1ccccc1C(=O)Nc1ccccc1C(=O)NCc1ccco1)S(C)(=O)=O | inconclusive [inhibitor, partial curve]
41 | O=C(NC(n1ccc(=O)[nH]c1=O)C(Cl)(Cl)Cl)C12CC3CC(CC(C3)C1)C2 (stereo not drawn) | active: 39.8 µM
42 | c1ccc2c(c1)[nH]c1cnccc12 | inactive
43 | COC(=O)CCC/C=C1/SCC(NC(=O)c2ccccc2)C1O (stereo not drawn) | inconclusive [inhibitor, partial curve, poor fit]
44 | COc1ccc(S(=O)(=O)Nc2ccccc2OC)cc1C | inconclusive [inhibitor, single point]
45 | COc1ccc([C@]23Cc4ccccc4C(O2)c2c(c4ccc(OC)cc4oc2=O)O3)cc1 | inconclusive [inhibitor, partial curve]
46 | O=C(CCS(=O)(=O)c1ccc(Br)s1)Nc1c(F)cccc1F | inconclusive [inhibitor, full curve]
47 | CCC(C)n1c(O)c(/C=N/Nc2ccccc2)c(=O)[nH]c1=S (stereo not drawn) | inconclusive [inhibitor, partial curve]
48 | O=C1CC(c2ccc(O)c(O)c2)Oc2c1ccc(O)c2O (stereo not drawn) | active: 56.2 µM
49 | CCSC1=C(C#N)C2(CCCC2)C(C#N)=C(N)N1 | inconclusive [inhibitor, partial curve]
50 | COc1cc(OC)c(NC(=O)/C=C/C(=O)O)cc1Cl | active: 50.1 µM

Row | Structure (SMILES) | Potency
51 | Cn1c(Cc2csc(N)n2)nnc1SCC(=O)NCc1ccccc1 | inconclusive [inhibitor, full curve]
52 | COCCNC(=S)N/N=C(\C)c1ccccc1F | inconclusive [inhibitor, partial curve, poor fit]
53 | CN1CCCN(Cc2nc(-c3cccc(C(F)(F)F)c3)no2)CC1 | active: 25.1 µM
54 | O=C(CSc1nnc(-c2ccc(Cl)cc2)n1Cc1ccco1)c1cccs1 | active: 28.2 µM
55 | Cc1ccc(S(=O)(=O)Cc2csc(N)n2)cc1 | inactive
56 | COC(=O)Nc1nnc(-c2ccco2)s1 | inconclusive [inhibitor, partial curve]
57 | COc1ccc(C(=O)NC(=S)Nc2ccc(CN3CCOCC3)cc2)cc1 | active: 22.4 µM
58 | CCN(CC)S(=O)(=O)c1ccc(Cl)c(NC(=O)COC(=O)c2ccc([N+](=O)[O-])o2)c1 | active: 6.31 µM
59 | Cc1[nH][nH]c(=O)c1C(c1ccc(Br)cc1)c1c(C)[nH][nH]c1=O | inconclusive [inhibitor, full curve]
60 | COc1ccc(S(=O)(=O)N2CCC(C(=O)N3CCOCC3)CC2)cc1OC | active: 79.4 µM
61 | CCN1C/C(=C/c2cccs2)c2nc3ccccc3c(C(=O)O)c2C1 | inconclusive [inhibitor, partial curve]
62 | CCN(C(=O)CCS(=O)(=O)c1ccc(Br)cc1)c1ccc2c(c1)OCO2 | inconclusive [inhibitor, full curve]
63 | Cc1ccc(C2C=C(c3ccc(Cl)cc3)Nc3nc(NC(=O)CCC(=O)O)nn32)cc1 (stereo not drawn) | active: 17.8 µM
64 | COc1ccccc1C(=O)Nc1ccccc1SC(=O)c1ccccc1OC | inconclusive [inhibitor, full curve]
65 | COc1ccc(/C=N/NC(=S)Nc2cccc(C(=O)O)c2)cc1 | inactive
66 | CC(=O)n1cc(C=C2C(=O)NC(=O)NC2=O)c2ccccc21 | inconclusive [inhibitor, full curve]
67 | Cc1occc1-c1nnc(SCc2nc3ccccc3c(=O)n2CC#N)n1C | inconclusive [inhibitor, partial curve]
68 | CC1(C)CC(=O)C(C(C2=C(O)CC(C)(C)CC2=O)c2cccc(O)c2)C(=O)C1 (stereo not drawn) | inconclusive [inhibitor, partial curve]
69 | CC(/C=N/NC(=O)Cn1cnc2c1c(=O)n(C)c(=O)n2C)=C\c1ccco1 | active: 25.1 µM
70 | Oc1ccc2cc(Br)ccc2c1CN1CCCC1 | active: 31.6 µM
71 | Cc1cc2n(n1)SC(Nc1ccc(F)cc1)N2 (stereo not drawn) | inconclusive [inhibitor, full curve, poor fit]
72 | CC(=O)c1ccc(NC(=O)C(Cc2ccccc2)NS(=O)(=O)c2ccc3c(c2)CCC(=O)N3)cc1 (stereo not drawn) | inactive
73 | CCC(=O)N1CCc2cc(S(=O)(=O)NCCC(=O)NC(C)c3ccccc3)ccc21 (stereo not drawn) | inactive
